# In the supplement of paper PMC8728848:
# Some of the results follow.
# B1: OrfX (Escherichia coli), Q9X4B6_ECOLX (protein)
# chain: MIKIARIAVTLGLLSSLGAQAYAAGLVVNDNDLRNDLAWLSDRGVIHLSLSTWPLSQEEIARALKKAKPSYSSEQVVLARINQRLSALKADFRVTGYTSTDQPGTPQGFGQTQPADNSLGLAFNNSGEWWDVHLQGNVEGGERISNGSRFNANGAYGAVKFWNQWLSFGQVPQWWGPGYEGSLIRGDAMRPMTGFLMQRAEQAAPETWWLRWVGPWQYQISASQMNQYTAVPHAKIIGGRFTFTPFQSLELGASRIMQWGGEGRPQSFSSFWDGFTGHDNTGTDNEPGNQLAGFDFKFKLEPTLGWPVSFYGQMVGEDESGYLPSANMFLGGVEGHHGWGKDTVNWYVEAHDTRTNMSRTNYSYTHHIYKDGYYQQGYPLGDAMGGDGQLIAGKVELITEDNQRWSTRLVYAKVNPENQSINKAFPHADTLKGLQLGWSGDVYQSVRLNTSLWYTNANNSDSDDVGASAGIEIPFSL
# Key:
# Test in all cases: glycan array binding signal (z-score within array); higher = stronger binding
# Details in all cases: glycan notation: IUPAC condensed, linker removed
# [1] = target: Neu5Ac(a2-3)Gal(b1-4)GlcNAc(b1-3)Gal(b1-4)[Fuc(a1-3)]GlcNAc
# In short: (§1)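 Glycan array data were curated from 3228 arrays in the Consortium for Functional Glycomics database and kept only where the protein sequence was available. Glycan names were converted to IUPAC-condensed notation, and columns mapping to the same glycan were averaged. The binding signal is a within-array Z-score, averaged across arrays of the same protein sequence at different concentrations or buffers and across linkers. Negative Z-scores can be read as non-binding.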
# [2] = target: Neu5Ac(a2-3)Gal(b1-4)GlcNAc(b1-3)GalNAc
# In short: as §1
# [3] = target: Neu5Ac(a2-3)Gal(b1-4)GlcNAc(b1-3)[Neu5Ac(a2-3)Gal(b1-4)GlcNAc(b1-6)]GalNAc
# In short: as §1
# [4] = target: Neu5Ac(a2-3)Gal(b1-4)GlcNAc(b1-6)GalNAc
# In short: as §1
# [5] = target: Neu5Ac(a2-3)Gal(b1-4)GlcNAc(b1-6)[Gal(b1-3)]GalNAc
# In short: as §1
# [6] = target: Neu5Ac(a2-3)Gal(b1-4)GlcNAc(b1-6)[Neu5Ac(a2-3)Gal(b1-3)]GalNAc
# In short: as §1
# [7] = target: Neu5Ac(a2-3)Gal(b1-4)GlcNAc6S
# In short: as §1
# [8] = target: Neu5Ac(a2-3)Gal(b1-4)[Fuc(a1-3)]GlcNAc
# In short: as §1
# [9] = target: Neu5Ac(a2-3)Gal(b1-4)[Fuc(a1-3)]GlcNAc(b1-3)Gal
# In short: as §1
# [10] = target: Neu5Ac(a2-3)Gal(b1-4)[Fuc(a1-3)]GlcNAc(b1-3)Gal(b1-4)GlcNAc
# In short: as §1
# [11] = target: Neu5Ac(a2-3)Gal(b1-4)[Fuc(a1-3)]GlcNAc(b1-3)Gal(b1-4)[Fuc(a1-3)]GlcNAc(b1-3)Gal(b1-4)[Fuc(a1-3)]GlcNAc
# In short: as §1
# [12] = target: Neu5Ac(a2-3)Gal(b1-4)[Fuc(a1-3)]GlcNAc(b1-3)GalNAc
# In short: as §1
# [13] = target: Neu5Ac(a2-3)Gal(b1-4)[Fuc(a1-3)]GlcNAc(b1-6)[Gal(b1-3)]GalNAc
# In short: as §1
# [14] = target: Neu5Ac(a2-3)Gal(b1-4)[Fuc(a1-3)]GlcNAc6S
# In short: as §1
# [15] = target: Neu5Ac(a2-3)Gal6S(b1-4)GlcNAc
# In short: as §1
# [16] = target: Neu5Ac(a2-3)Gal6S(b1-4)[Fuc(a1-3)]GlcNAc
# In short: as §1
# [17] = target: Neu5Ac(a2-3)GalNAc
# In short: as §1
# [18] = target: Neu5Ac(a2-3)GalNAc(b1-4)GlcNAc
# In short: as §1
# [19] = target: Neu5Ac(a2-3)[GalNAc(b1-4)]Gal(b1-4)Glc
# In short: as §1
# [20] = target: Neu5Ac(a2-3)[GalNAc(b1-4)]Gal(b1-4)GlcNAc
# In short: as §1
# [21] = target: Neu5Ac(a2-3)[GalNAc(b1-4)]Gal(b1-4)GlcNAc(b1-3)GalNAc
# In short: as §1
# [22] = target: Neu5Ac(a2-3)[Neu5Ac(a2-6)]GalNAc
# In short: as §1
# [23] = target: Neu5Ac(a2-6)Gal
# In short: as §1
# [24] = target: Neu5Ac(a2-6)Gal(b1-3)GlcNAc(b1-3)[Gal(b1-4)GlcNAc(b1-6)]Gal(b1-4)Glc
# In short: as §1
# [25] = target: Neu5Ac(a2-6)Gal(b1-4)Glc
# In short: as §1
# [26] = target: Neu5Ac(a2-6)Gal(b1-4)GlcNAc
# In short: as §1
# [27] = target: Neu5Ac(a2-6)Gal(b1-4)GlcNAc(b1-2)Man(a1-3)Man(b1-4)GlcNAc(b1-4)GlcNAc
# In short: as §1
# [28] = target: Neu5Ac(a2-6)Gal(b1-4)GlcNAc(b1-2)Man(a1-3)[Gal(b1-4)GlcNAc(b1-2)Man(a1-6)]Man(b1-4)GlcNAc(b1-4)GlcNAc
# In short: as §1
# [29] = target: Neu5Ac(a2-6)Gal(b1-4)GlcNAc(b1-2)Man(a1-3)[GlcNAc(b1-2)Man(a1-6)]Man(b1-4)GlcNAc(b1-4)GlcNAc
# In short: as §1
# [30] = target: Neu5Ac(a2-6)Gal(b1-4)GlcNAc(b1-2)Man(a1-3)[GlcNAc(b1-2)Man(b1-4)GlcNAc(b1-2)Man(a1-6)]Man(b1-4)GlcNAc(b1-4)GlcNAc
# In short: as §1
# [31] = target: Neu5Ac(a2-6)Gal(b1-4)GlcNAc(b1-2)Man(a1-3)[Man(a1-6)]Man(b1-4)GlcNAc(b1-4)GlcNAc
# In short: as §1
# [32] = target: Neu5Ac(a2-6)Gal(b1-4)GlcNAc(b1-2)Man(a1-3)[Neu5Ac(a2-6)Gal(b1-4)GlcNAc(b1-2)Man(a1-6)]Man(b1-4)GlcNAc(b1-4)GlcNAc
# In short: as §1
# [33] = target: Neu5Ac(a2-6)Gal(b1-4)GlcNAc(b1-2)Man(a1-3)[Neu5Ac(a2-6)Gal(b1-4)GlcNAc(b1-2)Man(a1-6)]Man(b1-4)GlcNAc(b1-4)[Fuc(a1-6)]GlcNAc
# In short: as §1
# [34] = target: Neu5Ac(a2-6)Gal(b1-4)GlcNAc(b1-2)Man(a1-6)Man(b1-4)GlcNAc(b1-4)GlcNAc
# In short: as §1
# [35] = target: Neu5Ac(a2-6)Gal(b1-4)GlcNAc(b1-2)Man(a1-6)[Gal(b1-4)GlcNAc(b1-2)Man(a1-3)]Man(b1-4)GlcNAc(b1-4)GlcNAc
# In short: as §1
# [36] = target: Neu5Ac(a2-6)Gal(b1-4)GlcNAc(b1-2)Man(a1-6)[GlcNAc(b1-2)Man(a1-3)]Man(b1-4)GlcNAc(b1-4)GlcNAc
# In short: as §1
binder,measurement,setting,value
B1,glycan array binding signal (z-score),[1],-0.258
same,glycan array binding signal (z-score),[2],-0.138
same,glycan array binding signal (z-score),[3],-0.029
same,glycan array binding signal (z-score),[4],-0.258
same,glycan array binding signal (z-score),[5],-0.37
same,glycan array binding signal (z-score),[6],-0.243
same,glycan array binding signal (z-score),[7],-0.265
same,glycan array binding signal (z-score),[8],-0.281
same,glycan array binding signal (z-score),[9],-0.262
same,glycan array binding signal (z-score),[10],-0.249
same,glycan array binding signal (z-score),[11],-0.34
same,glycan array binding signal (z-score),[12],7.1
same,glycan array binding signal (z-score),[13],-0.032
same,glycan array binding signal (z-score),[14],-0.285
same,glycan array binding signal (z-score),[15],-0.109
same,glycan array binding signal (z-score),[16],-0.372
same,glycan array binding signal (z-score),[17],-0.289
same,glycan array binding signal (z-score),[18],-0.304
same,glycan array binding signal (z-score),[19],-0.287
same,glycan array binding signal (z-score),[20],0.199
same,glycan array binding signal (z-score),[21],-0.205
same,glycan array binding signal (z-score),[22],-0.289
same,glycan array binding signal (z-score),[23],-0.031
same,glycan array binding signal (z-score),[24],-0.156
same,glycan array binding signal (z-score),[25],-0.126
same,glycan array binding signal (z-score),[26],-0.318
same,glycan array binding signal (z-score),[27],-0.428
same,glycan array binding signal (z-score),[28],-0.395
same,glycan array binding signal (z-score),[29],-0.308
same,glycan array binding signal (z-score),[30],-0.54
same,glycan array binding signal (z-score),[31],-0.426
same,glycan array binding signal (z-score),[32],-0.228
same,glycan array binding signal (z-score),[33],-0.386
same,glycan array binding signal (z-score),[34],-0.314
same,glycan array binding signal (z-score),[35],-0.286
same,glycan array binding signal (z-score),[36],-0.293
